# Values of other authors as cited in publication PMC11006913.
# The other results are listed elsewhere or left out.
# Columns and labels:
# Conditions in all cases: PBM; conditions not shown; double strand, one strand shown; scale: upbm affinity estimate (log intensity, higher = more binding, comparable within an allelic series)
# [1] = target: HOXD13 I297V (Homo sapiens) (UniProt P35453)
# [2] = target: HOXD13 I322L (Homo sapiens) (UniProt P35453)
# [3] = target: HOXD13 N298S (Homo sapiens) (UniProt P35453)
# [4] = target: HOXD13 Q325K (Homo sapiens) (UniProt P35453)
# [5] = target: HOXD13 Q325R (Homo sapiens) (UniProt P35453)
# [6] = target: HOXD13 R306W (Homo sapiens) (UniProt P35453)
# [7] = target: HOXD13 S316C (Homo sapiens) (UniProt P35453)
Sequence,binding signal [1],binding signal [2],binding signal [3],binding signal [4],binding signal [5],binding signal [6],binding signal [7]
ATTTATAG [8-mer ATTTATAG],12.8,11.7,13,11.8,11.9,12.3,12.8
CGCCCCAG [8-mer CGCCCCAG],9.32,9.25,9.37,9.45,9.45,9.32,9.22
ATCATAAA [8-mer ATCATAAA],12.4,11.4,12.7,11,11.7,11.6,12.4
ATTTTATG [8-mer ATTTTATG],12.5,11.3,12.6,11.5,12,11.8,12.2
CCCGTAAA [8-mer CCCGTAAA],12.3,12.3,12.4,9.95,10.4,11.1,12.1
GCCATAAA [8-mer GCCATAAA],12.2,11.2,12.4,10.4,10.9,11.3,12.1
GCCCCCAA [8-mer GCCCCCAA],9.57,9.41,9.54,9.42,9.24,9.29,9.49
GGGGGCCA [8-mer GGGGGCCA],9.25,9.14,9.21,9.45,9.4,9.25,9.24
CGGGAGCC [8-mer CGGGAGCC],9.57,9.47,9.48,9.4,9.35,9.38,9.51
CTCCTGCC [8-mer CTCCTGCC],9.72,9.53,9.55,9.72,9.59,9.62,9.53
GTTTTATA [8-mer GTTTTATA],12.4,11.4,12.6,12.6,12.6,12.1,12.4
CCCGGAGG [8-mer CCCGGAGG],9.29,9.2,9.22,9.46,9.24,9.27,9.25
GCTGCTCC [8-mer GCTGCTCC],9.47,9.44,9.36,9.35,9.29,9.43,9.42
AGTTTATG [8-mer AGTTTATG],12.3,11.1,12.5,10.9,11.5,11.4,12.1
